Data taken from PubChem BioAssay AID488969 (Vanderbilt High Throughput Screening Facility, 2010).
In all, about 110,000 compounds were measured (“z-score”: median about -0.1, highest 2% from about 2 on). This is one part of the list. Active and inactive are the calls of the source.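 The calls were made as follows: active = z-score in the third read window above 3 or below -3; inactive = the rest.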

The compounds below were run against Metabotropic glutamate receptor 8 (Rattus norvegicus) (UniProt P70579) (assay: rat mGluR8 modulators via GIRK flux, primary screen, cell-based, thallium flux, HTS (AID 488969)). Conditions: HEK293 rat mGluR8, GIRK (G protein-gated inwardly rectifying potassium channel) thallium flux, FluoZin2; at 10 µM; stronger effect = higher value; submaximal glutamate (EC20) added with thallium.
Sequence of UniProt P70579 (P70579 whole entry, looked up): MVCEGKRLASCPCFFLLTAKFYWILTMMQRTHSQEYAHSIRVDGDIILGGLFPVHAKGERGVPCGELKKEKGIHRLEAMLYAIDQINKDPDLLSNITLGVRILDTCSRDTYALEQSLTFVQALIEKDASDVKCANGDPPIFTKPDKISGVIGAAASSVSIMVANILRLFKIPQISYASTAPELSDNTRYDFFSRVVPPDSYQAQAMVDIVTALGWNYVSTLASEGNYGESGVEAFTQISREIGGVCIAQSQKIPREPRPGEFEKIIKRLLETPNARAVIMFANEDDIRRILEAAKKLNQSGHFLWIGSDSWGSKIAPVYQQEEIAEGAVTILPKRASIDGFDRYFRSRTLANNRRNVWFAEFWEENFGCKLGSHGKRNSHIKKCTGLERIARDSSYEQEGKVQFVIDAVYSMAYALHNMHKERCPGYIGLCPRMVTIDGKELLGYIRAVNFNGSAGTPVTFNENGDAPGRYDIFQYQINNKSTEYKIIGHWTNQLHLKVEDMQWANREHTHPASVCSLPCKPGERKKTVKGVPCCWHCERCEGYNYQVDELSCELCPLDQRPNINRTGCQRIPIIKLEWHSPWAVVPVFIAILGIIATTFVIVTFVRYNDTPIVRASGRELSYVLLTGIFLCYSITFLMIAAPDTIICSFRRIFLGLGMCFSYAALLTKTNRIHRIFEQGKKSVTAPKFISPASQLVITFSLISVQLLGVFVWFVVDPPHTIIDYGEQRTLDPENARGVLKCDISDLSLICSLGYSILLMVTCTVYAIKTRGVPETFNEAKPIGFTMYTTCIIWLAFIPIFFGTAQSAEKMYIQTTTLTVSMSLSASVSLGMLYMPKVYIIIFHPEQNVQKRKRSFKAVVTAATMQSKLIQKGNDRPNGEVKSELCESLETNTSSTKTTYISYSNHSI

First: CCc1c(C)nc2ncnn2c1Nc1ccc(C(C)=O)cc1
Second: COc1ccc(C(=O)CCNc2ccc(C)c(Cl)c2)cc1
The z-score of the first is higher: 0.0606 for the first, -0.153 for the second.

First: Cc1noc(C)c1C(=O)N1CCc2ccccc2C1
Second: Cc1[nH]c2ccccc2c1C(=O)CN1CCC(C)CC1
The z-score of the first is higher: 1.98 for the first, -0.126 for the second.

First: CCCS/C(N)=N/N=C/c1cc(C)ccc1O
Second: Cc1ccc(NC(=S)NCCSc2ccc(Cl)cc2)c(C)c1
The z-score of the first is lower: -0.0872 for the first, 0.032 for the second.

Compared with `Cc1ccc(-n2ncc3c(SCc4cccc(C)c4)ncnc32)cc1`, `COc1cccc(-n2nnc3c(=O)n(Cc4ccccc4F)cnc32)c1` is lower in z-score: 2.66 for the first, -0.331 for the second.

Going from `CCCCN1C(=O)CCC(C(=O)O)C1c1ccc(OC)cc1` (stereo not drawn) to `COc1ccc(-c2cc(CNC(=O)CCl)on2)cc1`, the z-score falls from 0.142 to -0.113.

Going from `COc1ccc(-c2nnc(SC3CCOC3=O)n2C2CCCCC2)cc1OC` (stereo not drawn) to `Nn1c(SCC(=O)NC2CCCCC2)nnc1C1CC1`, the z-score rises from -0.0774 to 0.0507.

Going from `Cc1cccc(C(P(=O)(c2ccccc2)c2ccccc2)P(=O)(c2ccccc2)c2ccccc2)n1` to `CN(CCOc1ccc(-c2ccn(S(=O)(=O)c3cccc4ccccc34)n2)cc1)c1ccccn1`, the z-score rises from -0.285 to 0.0221.

First: CCNS(=O)(=O)c1ccc2c3c(cccc13)C(=O)N2
Second: CCc1ccc(/C=C2\Oc3cc(OS(C)(=O)=O)ccc3C2=O)cc1
The z-score of the first is higher: -0.0155 for the first, -0.238 for the second.

Going from `O=C1CCc2cc(S(=O)(=O)N3CCC(C(=O)Nc4nccs4)CC3)ccc2N1` to `O=C(CN1CCN(S(=O)(=O)c2ccc3ccccc3c2)CC1)NC(=O)NC1CCCCC1`, the z-score rises from -0.108 to -0.0688.

Compared with `CCN(CC)C(=O)CSCC(=O)Nc1ccccc1`, `COC(=O)C(NC(C)=O)(Nc1ccccc1)C(=O)OC` is higher in z-score: -0.539 for the first, 0.073 for the second.

Going from `Cc1[nH]n2c(=O)cc(Cc3ccccc3)nc2c1C#N` to `COc1ccccc1OCCCn1c(C)c(C#N)c2ccccc21`, the z-score falls from 0.0405 to -0.455.

Going from `C/C(=N\NC(=O)C(=O)Nc1cccc(C(F)(F)F)c1)c1ccc(Cl)s1` to `CC(C)Cc1cc(C(=O)Nc2cc(C(F)(F)F)ccc2Cl)no1`, the z-score falls from 0.376 to -0.28.

First: CCC(C)(C)NC(=S)Nc1ccc(-c2nc3ccc(C)cc3s2)cc1
Second: Cn1c(-c2ccc3nc(N)sc3c2)nc2cc(N)ccc21
The z-score of the first is lower: -0.0204 for the first, 0.495 for the second.

Going from `CC(C)(C)c1ccc(C(=O)NCC(=O)OCc2ccc([N+](=O)[O-])cc2)cc1` to `COc1ccc(C(=O)Nc2nc(-c3ccc([N+](=O)[O-])cc3)c(-c3ccccc3)s2)cc1`, the z-score rises from -0.34 to 0.086.

Going from `Cc1nnc(N2CCN(c3ccccc3)CC2)[nH]c1=O` to `O=c1c2ccccc2n2cnnc2n1-c1ccccc1`, the z-score rises from -0.24 to 0.114.

Going from `OC(CNc1ccccc1)COc1ccc(OCC(O)CNc2ccccc2)cc1` (stereo not drawn) to `CCc1ccc(NC(=O)COC(=O)/C(=C/c2ccccc2OC)c2ccccc2)cc1`, the z-score falls from -0.0572 to -0.145.

Compared with `CC(C)(C)S(=O)(=O)c1cnc2c(-c3ccc(F)cc3)cnn2c1N`, `O=S(=O)(c1ccc(F)cc1)N1CCn2c(nc3ccccc32)C1` is lower in z-score: -0.0351 for the first, -0.178 for the second.

First: CCn1c(COc2ccccc2)nnc1SCc1ccc(C#N)cc1
Second: Nn1c(SCc2ccccc2)nnc1-c1ccco1
The z-score of the first is lower: -0.725 for the first, 0.101 for the second.

First: COc1cccc(CNC(=O)c2ccccc2N)c1
Second: COCCNC(=O)c1ccccc1-c1nc(-c2ccccc2Cl)no1
The z-score of the first is higher: 0.158 for the first, -0.408 for the second.

Going from `COc1ccccc1NC(=O)c1ccc(NC(=O)c2cc3c(s2)CCC3)cc1` to `CC(NC(=O)c1cccc2ccccc12)c1ccc2c(c1)CCCC2` (stereo not drawn), the z-score rises from -0.346 to -0.156.

Compared with `O=S(=O)(c1cccc(-c2nc3ccccc3s2)c1)N1CCCC1`, `O=C(c1ccc(S(=O)(=O)N2CCCC2)cc1)N1CCN(Cc2ccc3c(c2)OCO3)CC1` is higher in z-score: -0.646 for the first, 0.0297 for the second.

Going from `O=C1S/C(=C\c2ccc(N3CCOCC3)o2)C(=O)N1Cc1c(F)cccc1Cl` to `N#C/C(=C/c1ccc(N2CCCCCC2)o1)c1ccc(F)cc1`, the z-score rises from -1.67 to 0.567.

Compared with `O=C(O)C1CC=CCC1C(=O)Nc1cc(Cl)ccc1Cl` (stereo not drawn), `O=C1NC(=Nc2ccc(Cl)cc2)SC1Cc1cc(Cl)ccc1Cl` (stereo not drawn) is higher in z-score: -0.205 for the first, 0.0493 for the second.

First: C#CC1(O)CC(C)N(C)C(C)C1 (stereo not drawn)
Second: CC1CC(C)CN(c2ccc(-n3cnnn3)cc2[N+](=O)[O-])C1 (stereo not drawn)
The z-score of the first is lower: -0.0403 for the first, 0.222 for the second.

Going from `O=C(COC(=O)C1=COCCO1)Nc1ccc(Oc2ccccc2)cc1` to `COc1cccc(C2C(C(=O)Nc3ccccc3)=C(C)N=c3s/c(=C/c4ccc(OCC(=O)O)cc4)c(=O)n32)c1` (stereo not drawn), the z-score rises from -0.517 to 0.0375.

Going from `CN(CCCC(=O)NCc1ccco1)S(=O)(=O)c1ccccc1` to `Cc1ccc2[nH]c(=O)c(CN(Cc3ccco3)C(=O)c3cccs3)cc2c1`, the z-score falls from 2.39 to -0.0752.

Going from `CCOc1cc2c(C#N)c(N3CCNCC3)nc(N)c2c(N)n1` to `COC(=O)c1[nH]c2cccc(OC)c2c1NC(=O)CCN1CCC(C(N)=O)CC1`, the z-score falls from 0.28 to -0.133.

Going from `CCN(CC)S(=O)(=O)c1ccc(/C=C/C(=O)Nc2ccc(F)cc2F)cc1` to `CCN(CC(=O)NC)S(=O)(=O)c1ccc(C)cc1`, the z-score rises from -0.319 to -0.267.

First: O=C(Oc1nsnc1N1CCCCC1)N1CCOCC1
Second: O=C(Oc1ccccc1OC(=O)N1CCOCC1)N1CCOCC1
The z-score of the first is higher: 0.353 for the first, -0.307 for the second.

First: COc1ccc(OC)c(N(CC(=O)N2CCC(C)CC2)S(=O)(=O)c2ccc(OC)c(OC)c2)c1
Second: COc1cccc(NC(=O)c2cn(C)c(=O)c3cc(OC)c(OC)cc23)c1
The z-score of the first is lower: -0.0262 for the first, 0.0835 for the second.

Going from `Cc1[nH]n(-c2ccccc2)c(=O)c1/C=N/N(C)c1ccccc1` to `Nc1[nH]n(-c2ccccc2)c(=O)c1N=Nc1ccccc1[N+](=O)[O-]`, the z-score falls from 1.8 to -0.139.

Going from `Cn1c(=O)n(CC#N)c2ccccc21` to `Cc1ccc(/C=C(/C#N)C(=O)NC(C)c2ccccc2)o1` (stereo not drawn), the z-score falls from -0.0717 to -0.178.

Compared with `CSc1nc(-c2ccccc2)ccc1C(N)=O`, `CC(c1ccccc1)N1C(=O)c2ccccc2C1O` (stereo not drawn) is higher in z-score: -0.167 for the first, -0.0425 for the second.

Going from `CCCC(O)(CCC)C(=O)NN1CCCCC1` to `CCCC(O)(CCC)C(=O)NN(C(=O)CCl)c1cccc(C)c1`, the z-score rises from -0.283 to -1.84e-05.

Compared with `Cc1ccc(C(=O)OCn2ncc(Cl)c(Cl)c2=O)cc1`, `NC1=NC(=O)C(CC(=O)c2ccc(Cl)cc2)S1` (stereo not drawn) is higher in z-score: -1.15 for the first, 0.0574 for the second.

Going from `CCCCNc1c(C(=O)OCC)c(=O)[nH]c2ccccc12` to `CCN(CC)CCNC(=O)C(C)c1nn(CC)c(=O)c2ccccc12` (stereo not drawn), the z-score rises from -1.17 to -0.00501.

Compared with `CC1=NNC(=O)C1CCC(=O)N/N=C/C=C/c1ccccc1` (stereo not drawn), `Cc1ccc2nc(SCC(=O)NC3CCCc4ccccc43)[nH]c2c1` (stereo not drawn) is higher in z-score: 0.079 for the first, 0.164 for the second.

Compared with `CCOc1ccc(OCc2ccc(C(=O)N3CCOCC3)cc2)cc1`, `CCOc1cc(C(=O)OCC(=O)Nc2ncc(Cl)c(C)c2Cl)ccc1OCC(=O)N1CCOCC1` is lower in z-score: -0.107 for the first, -0.168 for the second.

First: C/C(=N\NC(=O)c1ccc(Br)cc1)c1ccccc1
Second: Oc1ccc(CNc2ccccc2O)cc1
The z-score of the first is higher: 1.2 for the first, -0.105 for the second.

Compared with `CCC1(C(=O)c2ccc(Cl)cc2)C2c3ccccc3OC(=O)C21C(=O)Nc1ccccc1` (stereo not drawn), `Cc1c(NC(=O)C2CC(c3ccc(F)cc3)=NO2)c(=O)n(-c2ccccc2)n1C` (stereo not drawn) is lower in z-score: 0.864 for the first, -0.453 for the second.

First: Cc1cc2oc(C(=O)Nc3cccnc3)c(C)c2cc1C
Second: Cc1ccc(NS(=O)(=O)c2cc(C(=O)Nc3cccc(N(C)S(C)(=O)=O)c3)ccc2C)c(C)c1
The z-score of the first is higher: -0.221 for the first, -0.372 for the second.

Going from `CC(C)N1CCC2(CC1)N=C(c1ccc3c(c1)OCO3)CC(c1cc(Cl)ccc1O)N2` (stereo not drawn) to `COc1ccc(CNC(=O)/C=C/c2cc3c(cc2Br)OCO3)cc1`, the z-score falls from 1.97 to -0.217.

Compared with `COc1cc(/C=N/NC(=O)C(=O)NCc2cccnc2)ccc1O`, `CCOC(=O)COc1ccc(/C=C2/SC(=Nc3ccccc3)N(Cc3cccnc3)C2=O)cc1OC` is lower in z-score: -0.00674 for the first, -0.115 for the second.

Going from `Cc1ccsc1/C=C1\Oc2cc(OCC(=O)c3ccccc3)ccc2C1=O` to `COc1ccc(C(Nc2ccccn2)c2c(NC(=O)c3ccco3)sc(C)c2C)cc1` (stereo not drawn), the z-score rises from -0.00804 to 0.249.

First: O=C(CCCCCN1C(=O)C2C3C=CC(C3)C2C1=O)Nc1nccs1 (stereo not drawn)
Second: CC(C)CC(=O)Nc1ncnc2c1C(=O)CC(C)(C)C2
The z-score of the first is lower: 0.0543 for the first, 0.108 for the second.

Compared with `Cc1cc(NC(=O)c2cccc(F)c2)ncc1NC(=O)c1ccco1`, `O=C(NNc1c2ccccc2nc2ccccc12)c1ccc(O)cc1O` is higher in z-score: -0.415 for the first, 0.0188 for the second.

Going from `O=C(NCCCN1CCOCC1)c1ccc(Sc2ccc(Br)cc2)c([N+](=O)[O-])c1` to `Cc1ccc(C)c(N2CCN(C(=O)CNS(=O)(=O)c3cccs3)CC2)c1`, the z-score rises from -0.19 to 0.0118.

Compared with `Cc1csc(N/N=C/c2ccc(O)c([N+](=O)[O-])c2)n1`, `Cc1ccc(S(=O)(=O)CCc2nnc(N)s2)cc1` is higher in z-score: -0.883 for the first, 0.028 for the second.

Compared with `CCc1cc(=O)oc2cc(OCC(=O)OC)c(Cl)cc12`, `COc1ccccc1OCC(=O)O` is higher in z-score: -0.459 for the first, -0.241 for the second.

Going from `Cc1ccc(-c2cc(C(F)F)n3ncc(C(=O)Nc4c(C)nn(Cc5c(Cl)cccc5Cl)c4C)c3n2)cc1` to `Cc1cc(-c2ccccc2)n2nc(C)c(-c3ccccc3)c2n1`, the z-score rises from -0.725 to 0.174.

First: CCCn1[nH]cc(SC)c(=O)c1=O
Second: CCCC1=[N+](CC)CCn2c(C)ccc21
The z-score of the first is higher: -0.194 for the first, -0.263 for the second.

Going from `O=C1c2ccccc2C(=O)N1Cc1cc(-c2ccccc2Cl)no1` to `O=C(COc1ccccc1)N1CCN(S(=O)(=O)Cc2ccccc2)CC1`, the z-score rises from 0.00769 to 0.0406.

Going from `O=S(=O)(NC1CCCCC1)c1ccc(Cl)s1` to `Cc1ccc(CNC(=O)C(=O)NCC2CCCO2)cc1` (stereo not drawn), the z-score rises from -0.156 to 0.351.

Compared with `CSc1nc2sc3c(c2c2nnnn12)CC(C)(C)OC3`, `COc1ccc(N2CCN(C(CNC(=O)C(=O)NCCc3c[nH]c4ccccc34)c3ccco3)CC2)cc1` (stereo not drawn) is higher in z-score: 0.065 for the first, 0.149 for the second.

Compared with `COC(=O)c1[nH]c2cc(OC)ccc2c1NC(=O)CN1CCC(C(N)=O)(N2CCCCC2)CC1`, `COc1nccnc1NS(=O)(=O)c1ccc(N=Cc2c(C)[nH]n(-c3ccc(C)c(C)c3)c2=O)cc1` is higher in z-score: 0.0409 for the first, 1.41 for the second.

First: CCC1SC(N)=NC1=O (stereo not drawn)
Second: COc1cccc(CNn2cnnc2)c1OCc1ccc(F)cc1
The z-score of the first is higher: 0.0857 for the first, -0.661 for the second.

With `CCOc1ccc(-c2nc(-c3ccc(OC)c(OC)c3)no2)cc1OCC` the z-score was active: 4.75.
